Square brackets hold non-standard residues; d marks the D form. Peptide text beside a SMILES is read from it. * marks the point of attachment. dPhe(4-NHCONH2) = NC(=O)Nc1ccc(C[C@@H](N)C(=O)O)cc1; Dihydroorotyl(S) = O=C1C[C@@H](C(=O)*)NC(=O)N1; dPhe(4-Cl) = N[C@H](Cc1ccc(Cl)cc1)C(=O)O; Phe(4-NH2) = Nc1ccc(C[C@H](N)C(=O)O)cc1; d2Nal = N[C@H](Cc1ccc2ccccc2c1)C(=O)O; Lys(iPr) = CC(C)NCCCC[C@H](N)C(=O)O; d3Pal = N[C@H](Cc1cccnc1)C(=O)O
Key:
[1] = test system: C57BL/6 allo-HSCT recipients; experiment: Thymic and peripheral reconstitution after allo-HSCT; details: for at least 3 months after transplant
C57BL/6 mice = experiment: Lymphoid reconstitution, treatment 24 h after SL-TBI
[2] = test system: CD5+ enriched splenocytes; experiment: T cell in vitro assay (proliferation, cytokine production) of splenocytes 42 days after SL-TBI; format: cell-based, mouse; details: T cells from treated mice 42 days after SL-TBI
Protocol: To evaluate T cell proliferation and cytokine production, spleens were harvested 42 days after SL-TBI and T cells were purified by CD5^+ selection. Half of the cells were stimulated for 5 hours with PMA, Ionomycin (50 ng/ml and 1 ug/ml, respectively) and BD Golgi Plug (1 μl/ml) and cytokines evaluated by intracellular flow cytometric analysis. The remaining cells were CFSE (Invitrogen) labeled and plated on αCD3/αCD28 (5 μg and 1 μg, respectively) pre-coated plates. Proliferation was assessed by measuring the number of cell divisions 2 days after stimulation by flow cytometric analysis.

C57BL/6 recipients = experiment: Murine GVHD model; format: in vivo, mouse; details: LHRH-Ant treated versus control mice
[3] = test system: lymphocytic choriomeningitis virus (LCMV); format: in vivo, mouse; details: day 8 after infection, vs vehicle treated mice

CC(=O)N[C@H](Cc1ccc2ccccc2c1)C(=O)N[C@H](Cc1ccc(Cl)cc1)C(=O)N[C@H](Cc1cccnc1)C(=O)N[C@@H](CO)C(=O)N[C@@H](Cc1ccc(NC(=O)[C@@H]2CC(=O)NC(=O)N2)cc1)C(=O)N[C@H](Cc1ccc(NC(N)=O)cc1)C(=O)N[C@@H](CC(C)C)C(=O)N[C@@H](CCCCNC(C)C)C(=O)N1CCC[C@H]1C(=O)N[C@H](C)C(N)=O [Degarelix] (Ac-[d2Nal][dPhe(4-Cl)][d3Pal]S[Phe(4-NH2)](Dihydroorotyl(S))[dPhe(4-NHCONH2)]L[Lys(iPr)]P[dA]-NH2)
developing thymocytes [1]: significant increase in all subsets | thymic stroma (C57BL/6 mice; 7 days after SL-TBI, vehicle vs Degarelix): did not show significant difference | CD8+ naive T cells (C57BL/6 mice; 42 days after SL-TBI): most increased population | thymic cellularity (C57BL/6 mice; 42 days after SL-TBI, vs vehicle treated and untreated mice): significantly higher | all thymic subsets (C57BL/6 mice; 42 days after SL-TBI, vs vehicle-treated and untreated mice): significantly increased | DP thymocytes (C57BL/6 mice; day 7 after SL-TBI): significant increase | CD4+ and CD8+ thymocytes counts (C57BL/6 mice; day 7 after SL-TBI, vs irradiated control mice): did not detect a significant enhancement | thymus cellularity (C57BL/6 mice; day 7 after irradiation, vs vehicle): significantly increased | B cell counts (C57BL/6 mice; day 28 and 42, vs vehicle group): significantly increased | mTEChi cell number (C57BL/6 mice; day 42 after SL-TBI): significantly increased | splenic cellularity (C57BL/6 mice; starting from day 28 after SL-TBI): recovered faster | proliferation of CD4+ T cells upon T cell receptor (TCR) ligation [2]: significantly increased | GVHD mortality (C57BL/6 recipients): did not observe significant difference | LCMV viral burden in spleen [3]: significantly lower

Reference: patent US20200268852A1, “HEMATOPOIETIC RECOVERY FROM RADIATION INJURY” (priority 2013, published 2020)
